In all, about 310,000 compounds went through this assay and about 14,000 (4.5%) showed an effect of 50% or more. Effects have a minus sign here. The list shows a part of the results.
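Further: peak tail current of the secondary pulse compared with the same well before compound.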

The assay deals with human ether-à-go-go-related gene (hERG) potassium channel (human, UniProt Q12809). The experiment in a line: primary screen, population patch clamp on CHO cells stably expressing hERG.
human ether-à-go-go-related gene (hERG) potassium channel, sequence (Q12809 whole entry, looked up): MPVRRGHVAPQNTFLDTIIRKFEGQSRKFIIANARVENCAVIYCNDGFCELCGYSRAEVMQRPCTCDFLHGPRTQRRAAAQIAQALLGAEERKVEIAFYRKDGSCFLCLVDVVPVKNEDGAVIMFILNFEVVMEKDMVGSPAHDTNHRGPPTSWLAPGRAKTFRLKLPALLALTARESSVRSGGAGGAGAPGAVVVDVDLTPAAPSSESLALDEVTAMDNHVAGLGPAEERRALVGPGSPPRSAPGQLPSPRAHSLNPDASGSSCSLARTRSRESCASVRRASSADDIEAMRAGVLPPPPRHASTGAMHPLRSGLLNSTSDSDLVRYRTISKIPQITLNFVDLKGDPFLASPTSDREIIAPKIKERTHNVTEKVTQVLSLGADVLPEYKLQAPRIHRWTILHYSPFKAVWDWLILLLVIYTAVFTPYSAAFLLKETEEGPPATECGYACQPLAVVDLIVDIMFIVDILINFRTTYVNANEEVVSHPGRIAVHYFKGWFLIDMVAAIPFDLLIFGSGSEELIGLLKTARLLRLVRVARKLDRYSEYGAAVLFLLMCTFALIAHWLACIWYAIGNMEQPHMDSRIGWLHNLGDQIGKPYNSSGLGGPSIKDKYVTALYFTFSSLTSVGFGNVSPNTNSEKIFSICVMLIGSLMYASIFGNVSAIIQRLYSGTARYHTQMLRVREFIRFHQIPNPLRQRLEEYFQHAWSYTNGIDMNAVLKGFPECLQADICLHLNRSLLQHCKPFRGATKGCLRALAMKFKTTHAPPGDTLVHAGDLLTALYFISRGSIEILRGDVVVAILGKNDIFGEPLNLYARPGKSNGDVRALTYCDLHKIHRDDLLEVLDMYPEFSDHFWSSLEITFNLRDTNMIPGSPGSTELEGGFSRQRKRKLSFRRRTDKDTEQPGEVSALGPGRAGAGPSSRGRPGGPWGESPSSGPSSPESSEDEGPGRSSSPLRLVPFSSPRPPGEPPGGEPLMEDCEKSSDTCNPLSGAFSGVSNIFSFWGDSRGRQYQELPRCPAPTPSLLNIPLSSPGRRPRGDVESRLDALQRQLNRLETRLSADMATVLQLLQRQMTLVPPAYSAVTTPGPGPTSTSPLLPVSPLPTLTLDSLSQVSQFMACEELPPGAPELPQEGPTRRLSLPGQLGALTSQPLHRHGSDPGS
Take `COc1ccc(C2CC(c3ccc(C)cc3)Nc3nc(N)nn32)cc1` (stereo not drawn): the “hERG current change (%, negative = inhibition) at 10uM” value is -14.5%.

`O=C1CSCN1c1cc(Cl)ccc1Cl`: the “hERG current change (%, negative = inhibition) at 10uM” value amounted to 3.86%.

`COCCNC(=O)C(=O)Nc1ccc2c(c1)N(S(=O)(=O)c1cccs1)CCC2`: the “hERG current change (%, negative = inhibition) at 10uM” value was -1.44%.

With `O=C(/C=C/c1ccco1)NC(=S)Nc1cc(-c2nc3ccccc3s2)ccc1Cl`, the “hERG current change (%, negative = inhibition) at 10uM” value is listed as 1.95%.

For the molecule `Cc1cc(C)n(CCc2nc3c4ccccc4n(CC#N)c(=O)n3n2)n1`, the “hERG current change (%, negative = inhibition) at 10uM” value was 4.73%.

For `CCCn1ncc(/C=N/O)c1C`, the “hERG current change (%, negative = inhibition) at 10uM” value was determined as 17%.

As to `CC(=Nc1cccc(O)c1)c1sc2ccccc2c1O`, the “hERG current change (%, negative = inhibition) at 10uM” value is reported as 1.38%.

Take `CCS(=O)(=O)Nc1cccc(C2=NN(C(C)=O)C(c3cccs3)C2)c1` (stereo not drawn): the “hERG current change (%, negative = inhibition) at 10uM” value is given as 13.4%.

As for `C[C@H](CCC(=O)O)[C@H]1CC[C@H]2[C@@H]3[C@@H](O)C[C@@H]4C[C@H](O)CC[C@]4(C)[C@H]3CC[C@]12C`, the “hERG current change (%, negative = inhibition) at 10uM” value is -9.79%.

For the molecule `O=C(CN1C(=O)c2ccccc2C1=O)NCc1ccc(C(=O)O)cc1`, the “hERG current change (%, negative = inhibition) at 10uM” value is on record as 6.49%.

Regarding `Cc1c(C(=O)C(=O)NCCC2=CCCCC2)c2ccccc2n1C`, the “hERG current change (%, negative = inhibition) at 10uM” value is on record as 1.92%.

With `Cc1ccc(NC(=O)Cn2c(O)c(N=NC(N)=O)c3ccccc32)cc1`, the “hERG current change (%, negative = inhibition) at 10uM” value is listed as -1.48%.

As for `CCCNS(=O)(=O)c1cccc(C(=O)NNC(=O)c2cc(C)oc2C)c1`, the “hERG current change (%, negative = inhibition) at 10uM” value is listed as 10.7%.

Turning to `COc1ccc(S(=O)(=O)N2CCC(Cc3ccccc3)CC2)cc1C(N)=O`, the “hERG current change (%, negative = inhibition) at 10uM” value stood at 16.1%.

For the molecule `Cn1c(=O)c(C(=O)NCCc2ccc(Cl)cc2)c(O)c2ccccc21`, the “hERG current change (%, negative = inhibition) at 10uM” value is on record as 18.3%.

Take `Cn1cc(C(=O)NC2CCCCC2)c(=O)c2cc(S(=O)(=O)N3CCOCC3)ccc21`: the “hERG current change (%, negative = inhibition) at 10uM” value is recorded as 11.8%.

As to `COCCCNC(=O)CN(c1ccc(Cl)c(Cl)c1)S(C)(=O)=O`, the “hERG current change (%, negative = inhibition) at 10uM” value was -10.9%.

For the molecule `Cc1cc(-c2csc(NC(=O)c3ccc(=O)[nH]c3)n2)c(C)n1Cc1ccco1`, the “hERG current change (%, negative = inhibition) at 10uM” value is given as 13.1%.

In the case of `O=[N+]([O-])c1ccccc1S(=O)(=O)Nc1ncccn1`, the “hERG current change (%, negative = inhibition) at 10uM” value is listed as 11.5%.

For `CCOC(=O)C1C(c2cccc(F)c2)NC(=S)NC1(O)C(F)(F)F` (stereo not drawn), the “hERG current change (%, negative = inhibition) at 10uM” value was -14.4%.

`CCOc1ccc(C(C)NC(=O)c2cccc(F)c2)cc1` (stereo not drawn): the “hERG current change (%, negative = inhibition) at 10uM” value is 31.5%.

As to `COc1ccc(S(=O)(=O)Nc2ccccc2C(=O)Nc2nc(-c3ccc(F)cc3)cs2)cc1OC`, the “hERG current change (%, negative = inhibition) at 10uM” value is on record as -51.7%.

`Cc1ccc2cc(NC(=O)c3cccc(F)c3)ccc2n1`: the “hERG current change (%, negative = inhibition) at 10uM” value was 0.701%.

Take `COc1ccc(CCNC(=O)CN2C(=O)c3ccccc3C2=O)cc1`: the “hERG current change (%, negative = inhibition) at 10uM” value worked out at 16.1%.

Turning to `COc1cccc(/C=N/N2CCN(C)CC2)c1.O=P(O)(O)O`, the “hERG current change (%, negative = inhibition) at 10uM” value came out at 3.1%.

For the molecule `Cc1ccc(F)cc1NC(=O)N1CCNC(=O)C1CC(=O)Nc1cc(Cl)ccc1Cl` (stereo not drawn), the “hERG current change (%, negative = inhibition) at 10uM” value turned out to be 11%.

As for `Cc1cc(C(=O)Nc2ccc(F)cc2C)n(-c2ccccc2)n1`, the “hERG current change (%, negative = inhibition) at 10uM” value is 12.6%.

As for `CCOc1ccccc1C(=O)NCC(=O)NNC(=O)c1cccc(S(=O)(=O)Nc2ccc(OC)cc2)c1`, the “hERG current change (%, negative = inhibition) at 10uM” value is 5.97%.

On to `Cc1ccc(CC(=O)O/N=C(\N)c2ccncc2)cc1`, for which the “hERG current change (%, negative = inhibition) at 10uM” value stood at 7.28%.

For the molecule `Cc1ccc(NC(=O)Cn2c(O)c(N=NC(N)=S)c3ccccc32)cc1`, the “hERG current change (%, negative = inhibition) at 10uM” value amounted to 20.7%.

For `CC1CN=C(NCc2ccncc2)S1` (stereo not drawn), the “hERG current change (%, negative = inhibition) at 10uM” value was 10.3%.

For `CCOC(=O)c1c(NC(=O)COc2ncnc3sccc23)sc2c1CCC2`, the “hERG current change (%, negative = inhibition) at 10uM” value was 19.2%.

As for `COC(=O)c1ccc(N2CCOCC2)c(NC(=O)c2ccc(Br)o2)c1`, the “hERG current change (%, negative = inhibition) at 10uM” value was 7.34%.

With `Cc1ccccc1OCC(=O)Nc1nnc(-c2ccncc2)s1`, the “hERG current change (%, negative = inhibition) at 10uM” value is on record as 12.9%.

With `Cc1cc(C(F)F)n2ncc(C(=O)NC3CCCCCC3)c2n1`, the “hERG current change (%, negative = inhibition) at 10uM” value is on record as -11.5%.

With `C/C=C(\C)CN1CCN(c2ccccc2)CC1`, the “hERG current change (%, negative = inhibition) at 10uM” value was -1.68%.

For the molecule `CC12CCC(=O)N1C(C(=O)Nc1ccc(Cl)c(Cl)c1)CS2` (stereo not drawn), the “hERG current change (%, negative = inhibition) at 10uM” value is -10.2%.

On to `CCC(=O)N1c2ccccc2NC2=C(C(=O)CCC2)C1c1ccccc1` (stereo not drawn), for which the “hERG current change (%, negative = inhibition) at 10uM” value is given as 12.6%.

As to `COc1ccnc2c1c(=O)n(Cc1cccc(F)c1)c(=O)n2C`, the “hERG current change (%, negative = inhibition) at 10uM” value was 4.41%.

Turning to `O=C(Nc1nn[nH]n1)c1cc(-c2ccc(Cl)c(Cl)c2Cl)nc2ccccc12`, the “hERG current change (%, negative = inhibition) at 10uM” value is given as 33.7%.

For `N#Cc1ccccc1Cn1c(-c2cscn2)nc2ccccc21`, the “hERG current change (%, negative = inhibition) at 10uM” value is -7.78%.

Consider `COCCN1CCN(C(=O)C2CCC(=O)N(CCc3ccc(Cl)cc3)C2)CC1` (stereo not drawn), for which the “hERG current change (%, negative = inhibition) at 10uM” value was -17.6%.

Consider `CC(CCN1CCN(c2ccccc2)CC1)c1ccccc1.Cl` (stereo not drawn), for which the “hERG current change (%, negative = inhibition) at 10uM” value is given as -54.6%.

Consider `CC(=O)NC(CCS(C)(=O)=O)C(=O)Nc1c(C)cccc1C` (stereo not drawn), for which the “hERG current change (%, negative = inhibition) at 10uM” value came to 8.22%.

In the case of `O=C1c2ccccc2C(=O)N1CCc1nc(-c2cccnc2)no1`, the “hERG current change (%, negative = inhibition) at 10uM” value is reported as -12.2%.

As to `Nc1ncc(Br)cc1S(=O)(=O)Nc1ccccc1F`, the “hERG current change (%, negative = inhibition) at 10uM” value is listed as 3.85%.

In the case of `Cc1cc2c(Nc3ccc(O)cc3)ncnc2s1.Cl`, the “hERG current change (%, negative = inhibition) at 10uM” value turned out to be 6.2%.

As for `Cc1[nH]n(-c2nc(-c3ccccc3)cc(=O)[nH]2)c(=O)c1CCO`, the “hERG current change (%, negative = inhibition) at 10uM” value is 11.7%.

Turning to `CCOC(=O)C(=CNc1cscc1S(=O)(=O)C(C)C)C(=O)OCC`, the “hERG current change (%, negative = inhibition) at 10uM” value is -5.63%.

In the case of `CCN(CC)C(=O)C1CCC(CNS(=O)(=O)c2cccc3cccnc23)CC1` (stereo not drawn), the “hERG current change (%, negative = inhibition) at 10uM” value worked out at 4.52%.

On to `COC(=O)c1ccccc1NC(=S)NC(=O)COc1ccccc1Cl`, for which the “hERG current change (%, negative = inhibition) at 10uM” value is given as -4.5%.

Turning to `Cc1cc(NCCCN2CCOCC2)n2ncc(-c3ccc(Cl)cc3)c2n1`, the “hERG current change (%, negative = inhibition) at 10uM” value is on record as 0.66%.

`Cn1c(=O)c2c3c(sc2n2c(SCC(N)=O)nnc12)CC(C(C)(C)C)CC3` (stereo not drawn): the “hERG current change (%, negative = inhibition) at 10uM” value is -0.432%.

As to `COc1ccc2c(c1)c(/C=N/Nc1ccc(C(=O)O)cc1)c(C)n2C`, the “hERG current change (%, negative = inhibition) at 10uM” value came out at 25.8%.

`COc1ccc(C(=O)OCC(=O)Nc2ccc3[nH]c(=O)[nH]c3c2)cc1`: the “hERG current change (%, negative = inhibition) at 10uM” value was determined as 1.19%.

As for `CCN1C(=O)C(=Cc2ccc(N3CCOCC3)o2)C(=O)N(CC)C1=S`, the “hERG current change (%, negative = inhibition) at 10uM” value was found to be 13.8%.

For the molecule `CCOc1ccc(N2C(=O)c3ccc(C(=O)OCc4c(C)noc4C)cc3C2=O)cc1`, the “hERG current change (%, negative = inhibition) at 10uM” value is reported as 15.5%.

For the origin of these results see paper PMC4336329 (PLoS ONE, 2015).
